Test results as given in PubChem BioAssay AID360 (National Center for Advancing Translational Sciences (NCATS), 2006).
In all, about 48,000 compounds went through this assay and about 550 (1.1%) were called active. About 4% were inconclusive and are not listed. No stated cut-off is given here; in the data, active means potency below about 15 µM; inconclusive means mostly about 16 µM to 33 µM; inactive means weaker than that. The list shows a part of the results.

These molecules were tested against Lysosomal acid glucosylceramidase (Homo sapiens) (UniProt P04062) (assay: Glucocerebrosidase). Details: purified enzyme, resorufin glucoside fluorescence (screen aimed at inhibitors), 20 min; series mostly up to 77 µM.
UniProt P04062, sequence (P04062 whole entry, looked up): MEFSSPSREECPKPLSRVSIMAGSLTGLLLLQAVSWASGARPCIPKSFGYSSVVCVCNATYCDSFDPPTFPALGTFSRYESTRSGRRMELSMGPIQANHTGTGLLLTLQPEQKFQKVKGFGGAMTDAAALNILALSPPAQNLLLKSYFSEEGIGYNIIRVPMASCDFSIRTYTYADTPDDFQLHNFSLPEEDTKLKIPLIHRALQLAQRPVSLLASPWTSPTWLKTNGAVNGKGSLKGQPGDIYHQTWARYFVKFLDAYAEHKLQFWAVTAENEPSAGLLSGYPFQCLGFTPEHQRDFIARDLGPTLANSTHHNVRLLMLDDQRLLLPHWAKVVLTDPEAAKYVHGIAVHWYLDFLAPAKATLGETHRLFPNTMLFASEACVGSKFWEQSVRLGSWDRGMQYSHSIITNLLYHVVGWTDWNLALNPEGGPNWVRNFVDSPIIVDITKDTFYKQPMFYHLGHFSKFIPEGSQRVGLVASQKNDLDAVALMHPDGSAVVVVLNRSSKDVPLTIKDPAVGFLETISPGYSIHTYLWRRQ
Summary of the method: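 Compounds titrated against 0.2 nM normal enzyme, 30 uM resorufin beta-D-glucopyranoside substrate, citrate/phosphate buffer with taurocholate and tween-20, pH 5.9. Reaction ran 20 min at room temperature; fluorescence (Ex 548/Em 600) gave AC50.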
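Further: the screen sought inhibitors.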
Potency means the concentration at half of the fitted maximal effect.

Potency, active:
Cc1nn(Cc2ccc(C(=O)Nc3nccs3)cc2)c(C)c1Cl 13.7 µM

Potency, inactive:
Cc1ccc(S(=O)(=O)NCC(=O)NC2CCCC2)cc1 > 76.9 µM
CCC(=O)N1CCc2cc(Br)cc(S(=O)(=O)CC(=O)OC)c21 > 76.9 µM
COC(=O)c1c(C)[nH]c(C)c1-c1ccccc1Cl > 76.9 µM
Fc1ccc(OCc2nn3cnnc3s2)cc1 > 76.9 µM
O=C(CCCCn1c(=O)c2ccccc2n(CC(=O)NC2CCCC2)c1=O)NCc1ccco1 > 76.9 µM
O=C1CCCC/C1=C\Nc1ccc(O)cc1 > 76.9 µM
CCC(=O)Nc1c(C)nn(C(=O)CC)c1C > 76.9 µM
c1nc2nc3c(c(N4CCOCC4)n2n1)CCCC3 > 76.9 µM
O=C(Nc1ccccc1)N1CCC(c2ccccc2)C1 (stereo not given) > 76.9 µM
CS(=O)(=O)N(CC(=O)Nc1ccc2c(c1)OCCO2)c1ccc2c(c1)OCO2 > 76.9 µM
Cc1cc(C(=O)CSc2nnc(-c3ccco3)o2)c(C)n1CC1COc2ccccc2O1 (stereo not given) > 76.9 µM
CC1CCCCN1CC(=O)Nc1sc2c(c1C#N)CCC2 (stereo not given) > 76.9 µM
COCCCNC(=O)CN(c1cccc(Cl)c1C)S(C)(=O)=O > 76.9 µM
O=C(COC(=O)c1n[nH]c2ccccc12)Nc1ccc(S(=O)(=O)N2CCCC2)cc1 > 76.9 µM
CC1CCc2c(sc(NC(=O)c3noc4c3CCCC4)c2C(N)=O)C1 (stereo not given) > 76.9 µM
COC(=O)Nc1nnc(-c2ccccc2Cl)s1 > 76.9 µM
CCOC(=O)CSc1nc2cc(C(=O)NCc3ccco3)ccc2c(=O)n1C1CCCCC1 > 76.9 µM
Cc1cc(Oc2ccc(=O)n(C)n2)nc(Oc2ccc(=O)n(C)n2)n1 > 76.9 µM
Cc1ccc(NC(=O)CS(=O)CC(=O)Nc2ccc(N3CCOCC3)cc2)cc1Cl (stereo not given) > 76.9 µM
CCCS(=O)(=O)N1CCc2cc(OC)c(OC)cc2C1 > 76.9 µM
CCC(=O)Nc1nonc1-c1nc2ccccc2n1Cc1ccccc1 > 76.9 µM
NC(=O)C1(N2CCCCC2)CCN(C(=O)c2cccn3c(=O)c4cc(Cl)ccc4nc23)CC1 > 76.9 µM
CCCS(=O)(=O)N1CCC(C(=O)NCCCOCC)CC1 > 76.9 µM
O=C(c1ccc2c(c1)OCO2)N1CCCC(c2ccccc2)C1 (stereo not given) > 76.9 µM
O=C(Nc1ccc(Cl)cc1)Nc1ccc(N2CCOCC2)cc1 > 76.9 µM
COc1cc(C2C(C(=O)c3ccc(C)o3)=C(O)C(=O)N2Cc2cccnc2)ccc1O (stereo not given) > 76.9 µM
O=S(=O)(Nc1nc2ccccc2s1)c1ccc(Br)s1 > 76.9 µM
O=C(c1cc(-c2ccc(Cl)c(Cl)c2)on1)N1CCCCC1 > 76.9 µM
COc1cccc(C(=O)N2CCCC(c3nc(-c4cccs4)no3)C2)c1 (stereo not given) > 76.9 µM
COC(=O)c1cc(-c2cccc(OC)c2)n[nH]1 > 76.9 µM
O=C(C1CC1)N1CCc2cc(Br)cc(S(=O)(=O)N3CCOCC3)c21 > 76.9 µM
CCOC(=O)CSc1nnc(-c2ccc(S(=O)(=O)N3CCOCC3)cc2)n1-c1ccccc1 > 76.9 µM
CCOC(=O)c1cc2c(=O)n3ccccc3nc2n(CC2CCCO2)c1=NC(C)=O (stereo not given) > 76.9 µM
CCc1nc2ccccc2n1CC(=O)N(C(C)CC)C1CCS(=O)(=O)C1 (stereo not given) > 76.9 µM
Cc1cccc(NC(=O)c2sc3nc(-c4ccccc4)cn3c2C)n1 > 76.9 µM
CCOC(=O)c1nn(-c2sc(C(=O)OC)c(C)c2C(=O)OC)cc1O > 76.9 µM
CN(C)CC(C)(C)NS(=O)(=O)c1ccc(Cl)cc1 > 76.9 µM
COC(=O)c1nnn(-c2nc(N3CCCCC3)nc(N3CCCCC3)n2)c1C > 76.9 µM
COc1ccc(C2CC(=O)Nc3ccccc3S2(=O)=O)cc1OC (stereo not given) > 76.9 µM
O=C(CCSc1nnc(-c2ccco2)o1)Nc1ccccc1 > 76.9 µM
O=c1c2ccccc2nnn1Cc1ccccn1 > 76.9 µM
c1nc(N2CCC3(CC2)OCCO3)c2[nH]cnc2n1 > 76.9 µM
CCOc1ccc(Nc2cc(C)nc(-n3nc(C)cc3C)n2)cc1 > 76.9 µM
COc1ccc(-c2csc(N(CC3CCCO3)C(=O)c3cccs3)n2)cc1 (stereo not given) > 76.9 µM
Cc1ccccc1-n1c(=O)cc(N2CC(C)OC(C)C2)[nH]c1=O (stereo not given) > 76.9 µM
COc1cc(N(C)C)c(NC(C)=O)cc1C(=O)O > 76.9 µM
O=C(NCCCO)c1ccc2[nH]c3ccccc3c2c1 > 76.9 µM
COc1ccc2c(c1OC)C(=O)OC2CC(=O)c1ccc2c(c1)OCO2 (stereo not given) > 76.9 µM
Cc1cc(C(=O)Nc2c(C)n(C)n(-c3ccccc3)c2=O)c(C)o1 > 76.9 µM
O=c1nc(N2CCOCC2)ccn1Cc1ccc(Br)cc1 > 76.9 µM
CCCCn1c(SCC(=O)Nc2cc(C)on2)nnc1-c1cccnc1 > 76.9 µM
O=C(Nc1ccc2oc(-c3ccccc3F)nc2c1)c1ccc2c(c1)OCCO2 > 76.9 µM
Cc1csc(SCC(=O)Nc2ccc(S(=O)(=O)N3CCCC3)cc2)n1 > 76.9 µM
Cc1ccccc1N1CCN(c2ncnc3c2cnn3Cc2ccc(Cl)cc2)CC1 > 76.9 µM
O=C(COc1ccccc1)NCCn1ccc2ccccc21 > 76.9 µM
COCCn1c(=NC(=O)c2ccc3c(c2)OCO3)c(C#N)cc2c(=O)n3cccc(C)c3nc21 > 76.9 µM
COCCCNC(=O)C1CCCN(C(=O)Nc2ccc(OC)cc2)C1 (stereo not given) > 76.9 µM
CS(=O)(=O)N(CCc1ccccc1)CC(=O)NCc1ccccn1 > 76.9 µM
COCCn1c(=N)c(C(=O)NCCc2ccc(OC)cc2)cc2c(=O)n3cccc(C)c3nc21 > 76.9 µM
O=C(CSc1ccc2c(c1)OCCO2)NCCN1C(=O)CSC1=O > 76.9 µM
CC(C)NC(=O)C(C)n1cccc1C(=O)c1ccccc1 (stereo not given) > 76.9 µM
Cc1ccc(-n2c(SCC(=O)NCc3ccco3)nc3sc(C)c(C)c3c2=O)cc1 > 76.9 µM
COc1ccc(Cn2c(=O)oc3ccc(C)cc32)cc1OC > 76.9 µM
O=C(CSc1nnc(CNc2ccc(Cl)cc2)o1)Nc1nc2ccccc2s1 > 76.9 µM
CC1(C)CC(OC(=O)c2ccco2)CC(C)(C)N1O > 76.9 µM
C=CCn1c(CCNC(=O)c2ccccc2F)nnc1SCC(=O)Nc1nc(C)cs1 > 76.9 µM
CCCS(=O)(=O)N1CCC(C(=O)N2CCCC2)CC1 > 76.9 µM
Cc1nn(Cc2ccc(F)cc2)c(C)c1NC(=O)c1cc(-c2ccc3c(c2)OCO3)on1 > 76.9 µM
Clc1ccc(Br)cc1-c1nc(-c2cccnc2)no1 > 76.9 µM
CC(C)Sc1nnc([C@@H]2CCCN2C(=O)OC(C)(C)C)o1 > 76.9 µM
CCOC(=O)N1CCC(NC(=O)CN2C(=O)C(CC)Oc3ccc(C)cc32)CC1 (stereo not given) > 76.9 µM
Cn1nnnc1SCC(=O)Nc1ccccc1N1CCOCC1 > 76.9 µM
Cc1onc(-c2ccccc2)c1C(=O)OCC(=O)c1ccccc1 > 76.9 µM
O=C(c1ccco1)N1CCN(CC(=O)N2c3ccccc3CCc3ccccc32)CC1 > 76.9 µM
COc1ccc(N2CCN(C(=O)Cn3nnc(-c4cccs4)n3)CC2)cc1 > 76.9 µM
c1ccc(-c2nc3ccccc3o2)nc1 > 76.9 µM
CCS(=O)(=O)c1ccc(O)c(N2C(=O)C3C4C=CC(C4)C3C2=O)c1 (stereo not given) > 76.9 µM
CCCCN1C2CCCC1CC(NC(=O)c1ccc(OC)c(OC)c1)C2 (stereo not given) > 76.9 µM
CC(C)(C)NC(=O)c1ccc2c(c1)N(CC(=O)N1CCN(c3ccccc3F)CC1)C(=O)C(C)(C)O2 > 76.9 µM
CCn1c(SCC(=O)Nc2cc(NC(C)=O)ccc2OC)nnc1-c1ccccn1 > 76.9 µM
CC1Oc2ccccc2N(CC(=O)N(Cc2ccccc2)Cc2ccccn2)C1=O (stereo not given) > 76.9 µM
O=C(c1ccc2nccnc2c1)N1CCN(Cc2ccc3c(c2)OCO3)CC1 > 76.9 µM
O=C(CC1(O)C(=O)N(C/C=C/c2ccccc2)c2ccccc21)c1ccccn1 (stereo not given) > 76.9 µM
O=C(Cc1c(C(=O)O)[nH]c2ccccc12)NCCN1CCN(c2ccccc2F)CC1 > 76.9 µM
CCOc1ccccc1NC(=O)N1CCC(n2nnc3cc(C)ccc32)CC1 > 76.9 µM
CC(C)(C)c1cc(NS(=O)(=O)c2ccc3c(c2)OCCO3)on1 > 76.9 µM
COc1ccc(N=C2SC(C(=O)O)CC(=O)N2Cc2ccc(OC)c(OC)c2)cc1 (stereo not given) > 76.9 µM
N#Cc1cc2c(nc1SCc1cccnc1)CCCCC2 > 76.9 µM
Cc1cccc(N2CCN(C(=O)CCCOc3ccccc3)CC2)c1C > 76.9 µM
